Paper PMC4336329 (PLoS ONE, 2015)
The campaign covered roughly 310,000 compounds. About 14,000 (4.5%) showed an effect of 50% or more. Effects have a minus sign here. Some of the results follow.

Each compound was assayed against human ether-à-go-go-related gene (hERG) potassium channel (human, UniProt Q12809) (assay: primary screen, population patch clamp on CHO cells stably expressing hERG).
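Further: peak tail current of the secondary pulse compared with the same well before compound.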

Chain of human ether-à-go-go-related gene (hERG) potassium channel (Q12809 whole entry, looked up): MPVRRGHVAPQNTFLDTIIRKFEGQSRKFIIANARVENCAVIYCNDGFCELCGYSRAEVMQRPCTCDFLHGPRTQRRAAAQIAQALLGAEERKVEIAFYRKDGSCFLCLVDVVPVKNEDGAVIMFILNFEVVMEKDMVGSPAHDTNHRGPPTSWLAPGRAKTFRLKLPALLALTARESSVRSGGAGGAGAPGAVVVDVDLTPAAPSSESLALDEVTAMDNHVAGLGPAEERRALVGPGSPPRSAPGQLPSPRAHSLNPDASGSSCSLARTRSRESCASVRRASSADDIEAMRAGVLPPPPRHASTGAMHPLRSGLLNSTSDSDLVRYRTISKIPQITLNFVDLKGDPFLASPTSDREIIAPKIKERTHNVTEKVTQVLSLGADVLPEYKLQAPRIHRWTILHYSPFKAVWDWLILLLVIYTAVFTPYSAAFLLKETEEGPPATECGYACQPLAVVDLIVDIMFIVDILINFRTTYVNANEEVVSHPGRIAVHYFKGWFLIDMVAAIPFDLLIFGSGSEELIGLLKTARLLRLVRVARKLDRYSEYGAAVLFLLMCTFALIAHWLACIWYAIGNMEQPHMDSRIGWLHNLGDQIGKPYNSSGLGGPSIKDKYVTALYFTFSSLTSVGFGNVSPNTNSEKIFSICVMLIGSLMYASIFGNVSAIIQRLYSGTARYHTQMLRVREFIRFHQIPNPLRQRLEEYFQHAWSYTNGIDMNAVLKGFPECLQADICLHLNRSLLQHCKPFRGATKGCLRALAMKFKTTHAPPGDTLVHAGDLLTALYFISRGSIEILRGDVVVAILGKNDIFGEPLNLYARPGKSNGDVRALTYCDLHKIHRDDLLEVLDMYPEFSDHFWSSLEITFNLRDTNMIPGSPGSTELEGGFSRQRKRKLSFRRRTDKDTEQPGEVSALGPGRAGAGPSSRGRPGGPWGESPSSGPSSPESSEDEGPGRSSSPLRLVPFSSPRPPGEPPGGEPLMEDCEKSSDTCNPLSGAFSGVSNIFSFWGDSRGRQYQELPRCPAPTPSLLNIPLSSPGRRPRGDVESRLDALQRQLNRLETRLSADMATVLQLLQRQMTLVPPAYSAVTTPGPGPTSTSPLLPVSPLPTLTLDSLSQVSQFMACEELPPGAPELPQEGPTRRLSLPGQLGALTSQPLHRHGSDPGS

Row | Compound | hERG current change (%, negative = inhibition) at 10uM
1 | CC(C)OCC(O)CN1CCN(CCN2C(=O)c3cccc4cccc(c34)C2=O)CC1.Cl (stereo not drawn) | -51.7%
2 | CNC(=O)C1CC(=O)N(c2ccc(OCC(=O)NCc3ccccc3)cc2)C1 (stereo not drawn) | 11.7%
3 | CC1Cc2ccccc2N1C(=O)CN1CCN(S(=O)(=O)c2cccs2)CC1 (stereo not drawn) | -21.3%
4 | COc1ccc(N2CC(NS(=O)(=O)c3cccs3)CC2=O)cc1 (stereo not drawn) | 12%
5 | NC(=O)c1ccc(NC(=O)CNC(=O)c2sc3ccccc3c2Cl)cc1 | 0.282%
6 | COC(=O)c1ccc(OC(=O)C2CC(=O)N(c3ccc(C)cc3C)C2)cc1 (stereo not drawn) | 11.4%
7 | Cc1c(Cc2ccccc2)c(=O)oc2cc(OCC(N)=O)ccc12 | 5.27%
8 | CC1(C)Cc2c(cnn2-c2ccc(F)cc2)C(NC(=O)CCCN2CCCCC2=O)C1 (stereo not drawn) | 2.89%
9 | Cc1cc(Cl)c(S(=O)(=O)NC(C(=O)O)C(C)C)cc1OCC(=O)NC1CCCCC1 (stereo not drawn) | 9.54%
10 | Cc1cccc2nc3c(nc12)CCCC3 | 2.11%
11 | COc1ccc(CN2CCOCC2)cc1 | 10.7%
12 | C=CCN1C(=O)N(CC=C)c2cccc3cccc1c23 | 13.3%
13 | OCCCc1nc2n(n1)C(c1ccccc1)C=C(c1ccc(F)cc1)N2 (stereo not drawn) | -12.8%
14 | O=C(CCCCO)c1ccc(O)c(Cl)c1 | 2.35%
15 | CC(=O)Oc1ccc(/C(C)=N/N2CCN(Cc3ccc(C)cc3)CC2)cc1 | -73.2%
16 | CCn1c(SCc2nc3ccccc3[nH]2)nnc1-c1cccs1 | -33.6%
17 | O=C(O)CSc1nnc(Nc2ccccc2)n1-c1ccccc1 | 18.6%
18 | O=C(O)c1ccccc1/C=N/n1c(C2CCCCC2)n[nH]c1=S | 16.8%
19 | CCN1C(=O)[C@@H]2[C@@H](c3ccc(SC4CCCCC4)c(OC)c3)N3CCC[C@@]3(C(=O)OC)[C@@H]2C1=O.O=C(O)C(F)(F)F | -56%
20 | CCCc1nc(N)c(C#N)c(-c2ccco2)c1CC | 14.3%
21 | O=C(N/N=C/c1c[nH]c2ccc(Br)cc12)c1ccn(Cc2ccc(Cl)cc2Cl)n1 | 6.95%
22 | COCCn1cnc2c1c(=O)n(CC(=O)NN)c(=O)n2Cc1ccccc1 | 8.95%
23 | O=C(Nc1ccccc1Cl)NC1(C(=O)N2CCCC2)CCCCC1 | -2.83%

Row | Compound | hERG current change (%, negative = inhibition) at 10uM
24 | O=C(COC(=O)c1ccc2c(=O)n3c(nc2c1)CCC3)Nc1ccc(OC(F)F)cc1 | -9.04%
25 | COc1cc(C)ccc1OCCCOc1ccccc1Cl | 5.53%
26 | Cc1n[nH]c(C)c1CN(C)C(=O)c1cc(COc2ccc(F)c(F)c2)on1 | -20.8%
27 | COc1ccc(C(=O)C2CCCN(C(=O)c3cc(C)nc(C)n3)C2)cc1OC (stereo not drawn) | 21.9%
28 | CC(C)Cc1nc(N2CCNCC2)c(C#N)c2c1CCC2 | 3.25%
29 | CCCCC(=O)NNC(=O)N1c2ccccc2Sc2ccccc21 | -1.83%
30 | Cc1cc(NC(=O)CSc2nnnn2-c2ccc(C)c(Cl)c2)no1 | 23.3%
31 | CCOc1ccc(CCNC(=O)c2ccc(CS(=O)Cc3cccc(Cl)c3)o2)cc1 (stereo not drawn) | -76%
32 | COc1ccc2c(c1OC)CN1CCc3cc4c(cc3[C@H]1C2)OCO4 | -1.81%
33 | CCOC(=O)C1=C(COC(=O)[C@H](C)NS(=O)(=O)c2ccc(NC(C)=O)cc2)NC(=O)NC1C (stereo partly drawn) | 21.2%
34 | CC(C)Oc1ccc(CCC(=O)N/N=C/c2ccc3c(c2)OCO3)cc1 | 21%
35 | COc1ccccc1CC(=O)NC1CCN(Cc2ccccc2)CC1 | 1.52%
36 | COc1ccc(NC(=O)NC(C)c2ccc3c(c2)OCO3)cc1OC (stereo not drawn) | 18%
37 | COc1cccc(C(=O)Nc2ccc(NC(=O)C(C)C)nc2)c1 | -8.07%
38 | Cc1ccc(CNS(=O)(=O)c2c(C)[nH]c(C)c2C(=O)N2CCCC2)cc1 | 14.4%
39 | CN1CCN(c2ccc([N+](=O)[O-])cc2NC(=O)c2cccs2)CC1 | -55.2%
40 | Cc1cc(N/C=C/C(=O)c2ccccc2)ccc1Br | 7.63%
41 | CN(C)/C=N/c1sc2c(c1C(N)=O)CCCC2 | 18%
42 | COC(=O)c1[nH]c2cc(OC)ccc2c1NC(=O)CN1CCC(C(N)=O)(N2CCCCC2)CC1 | -33.4%
43 | Cc1cccc(NC(=O)C2(c3cccs3)CCOCC2)n1 | 22.8%
44 | CCOc1ccc(C(=O)Nc2nnc(SCC(=O)NCC3CCCO3)s2)cc1 (stereo not drawn) | 12.6%
45 | COc1ccc(-n2c(SCC(=O)Nc3ccccc3)nc(O)cc2=O)cc1 | 25.6%
